The list shows a part of the results. Most values come without repeats; read them as rough.
Tests used:
Experiment in all cases: cell count relative to DMSO control; melanoma cells; higher = more viable cells
Conditions in all cases: library dose: standard library concentration; 72 h
[1] = system: A101D
[2] = system: A2058
[3] = system: A375
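Further: cells treated in 1,536-well plates, then fixed and DAPI-stained, with nuclei counted from automated high-throughput microscope images.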

With `Cc1cn(-c2cc(NC(=O)c3ccc(C)c(Nc4nccc(-c5cccnc5)n4)c3)cc(C(F)(F)F)c2)cn1` [nilotinib] + O=C(CCCCCCC(=O)Nc1ccccc1)NO [vorinostat] (first compound 1 µM, partner dose 0.4 µM) the cell count [1] was 107%, the cell count [2] was 97.2% and the cell count [3] was 150%.
Compound `COc1ccc(C2=N[C@@H](c3ccc(Cl)cc3)[C@@H](c3ccc(Cl)cc3)N2C(=O)N2CCNC(=O)C2)c(OC(C)C)c1` [Nutlin-3] + COc1ccc(Cl)c(Nc2nc3ccccc3nc2NS(=O)(=O)c2cccc(NC(=O)C(C)(C)N)c2)c1 [XL147] (first compound 0.5 µM, partner dose 4 µM) has a cell count [1] of 68.3%, a cell count [2] of 75.6% and a cell count [3] of 95.5%.
`COc1ccc(C2=N[C@@H](c3ccc(Cl)cc3)[C@@H](c3ccc(Cl)cc3)N2C(=O)N2CCNC(=O)C2)c(OC(C)C)c1` [Nutlin-3] + CCCCCCCCc1ccc(CCC(N)(CO)CO)cc1 [fingolimod] (first compound 0.5 µM, partner dose 10 µM) was tested, and the cell count [1] was 2.7%, the cell count [2] was 4.89% and the cell count [3] was 63.1%.
For `COc1ccc(C2=N[C@@H](c3ccc(Cl)cc3)[C@@H](c3ccc(Cl)cc3)N2C(=O)N2CCNC(=O)C2)c(OC(C)C)c1` [Nutlin-3] + C[C@]1(O)C[C@@H](c2nc(-c3ccc4ccc(-c5ccccc5)nc4c3)c3c(N)nccn32)C1 [OSI906] (first compound 0.5 µM, partner dose 2 µM), the cell count [1] was 88.6%, the cell count [2] was 93.5% and the cell count [3] was 97.9%.
For `COc1ccc(C2=N[C@@H](c3ccc(Cl)cc3)[C@@H](c3ccc(Cl)cc3)N2C(=O)N2CCNC(=O)C2)c(OC(C)C)c1` [Nutlin-3] + CCCS(=O)(=O)Nc1ccc(F)c(C(=O)c2c[nH]c3ncc(Cl)cc23)c1F [PLX4720] (first compound 0.5 µM, partner dose 0.4 µM), the cell count [1] was 72.8%, the cell count [2] was 124% and the cell count [3] was 99%.

Source: the supplement of paper PMC4604168 (melanoma cell lines)
